This assay has as its system primary human hepatic stellate cells (donor 1). Kind of assay: scaled lipid accumulation score (0 = DMSO-like, 1 = nortriptyline-like); higher = stronger HSC inactivation (lipid re-accumulation), active = hit call of the paper. To be noted: 48 h.
The mark [1] stands for this setting: library stock concentration: 3.33 mM.
Where [2] appears, read: library stock concentration: 10 mM.
The mark [3] stands for this setting: library stock concentration: 1 mM.

SMILES strings stand for the structures. Where “and” joins values, the source holds several entries; their conditions need not be identical. Identical values can stand only once. Counter-ions that a name gives are not always drawn. Out of some 5,800 compounds screened, about 620 (11%) showed activity.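 The calls were made as follows: active = score above a cut-off or among the top three wells of a plate; in these data no inactive exceeds 0.85.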 The list shows a part of the results, in another mix than the full data. Some results are limits rather than exact numbers.

As for `CC1C(=O)OC2C(O)C34C5CC(C(C)(C)C)C36C(OC(=O)C6O)OC4(C(=O)O5)C12O` (configuration not stated) [Ginkgolide B], the “scaled lipid accumulation score” value reads like this: under setting [1], inactive: 0.008; under setting [2], inactive: ≤ 0 and inactive: ≤ -0.006. For the compound `CC[C@]1(O)C[C@@H]2CN(CCc3c([nH]c4ccccc34)[C@@](C(=O)OC)(c3cc4c(cc3OC)N(C=O)[C@H]3[C@@](O)(C(=O)OC)[C@H](OC(C)=O)[C@]5(CC)C=CCN6CC[C@]43[C@@H]65)C2)C1.O=S(=O)(O)O`, the “scaled lipid accumulation score” value under setting [2] was active: 1.47. In the case of `CC1CC(OC(=O)C(O)c2ccccc2)CC(C)(C)C1` (configuration not stated) [Cyclandelate], the “scaled lipid accumulation score” value was inactive: ≤ 0 under setting [1] and inactive: 0.196 under setting [2].

`CC1CC(OC(=O)C(O)c2ccccc2)CC(C)(C)C1` (configuration not stated): the “scaled lipid accumulation score” value under setting [2] was inactive: 0.065. With `O=C(O)c1cccnc1Nc1cccc(C(F)(F)F)c1` [Niflumic acid], the “scaled lipid accumulation score” value was inactive: 0.004. In addition, the “scaled lipid accumulation score” value under setting [1] was inactive: ≤ 0. The “scaled lipid accumulation score” value (library stock concentration: 7.1 mM) was inactive: 0.006. Moreover, the “scaled lipid accumulation score” value under setting [2] was inactive: ≤ 0 and inactive: 0.007. For the same compound, the “scaled lipid accumulation score” value (library stock concentration: 17.7 mM) was inactive: ≤ -0.02. Turning to `O=C(O)c1cccnc1Nc1cccc(C(F)(F)F)c1` [Niflumic Acid], the “scaled lipid accumulation score” value under setting [3] was inactive: ≤ 0. Consider `O=c1[nH]c2cc(C(F)(F)F)c(N3CCOCC3)cc2n(CP(=O)(O)O)c1=O`, for which the “scaled lipid accumulation score” value under setting [2] was inactive: 0.046. In the case of `Cc1oncc1C(=O)Nc1ccc(C(F)(F)F)cc1` [Leflunomide], the “scaled lipid accumulation score” value is inactive: ≤ 0. Also, the “scaled lipid accumulation score” value (library stock concentration: 80 uM) was inactive: 0.045. Further, the “scaled lipid accumulation score” value (library stock concentration: 400 uM) is inactive: ≤ 0. Under “library stock concentration: 2 mM”, the “scaled lipid accumulation score” value is inactive: ≤ 0. The “scaled lipid accumulation score” value under setting [1] is inactive: ≤ 0. Regarding `Cc1cn(C2C=CC(CO)O2)c(=O)[nH]c1=O` (configuration not stated) [2',3'-didehydro-3'-deoxythymidine], the “scaled lipid accumulation score” value under setting [2] is inactive: ≤ -0.07. The same measure, in the same setting: next, `CC#CCOC(=O)c1c(C)nc2sc3c(c2c1N)CCC(O)C3` (configuration not stated): active: 0.882. As for `CCOC(=O)[C@H](CCc1ccccc1)N[C@@H](C)C(=O)N1Cc2ccccc2C[C@H]1C(=O)O` [Quinapril HCl], the “scaled lipid accumulation score” value is inactive: ≤ 0. Under setting [1], the “scaled lipid accumulation score” value is inactive: 0.001. The “scaled lipid accumulation score” value under setting [2] is inactive: 0.013. On to `CCOC(=O)[C@H](CCc1ccccc1)N[C@@H](C)C(=O)N1Cc2ccccc2C[C@H]1C(=O)O`, for which the “scaled lipid accumulation score” value under setting [2] is inactive: ≤ 0. On to `CCOC(=O)[C@H](CCc1ccccc1)N[C@@H](C)C(=O)N1Cc2ccccc2C[C@H]1C(=O)O` [Quinapril hydrochloride], for which the “scaled lipid accumulation score” value under setting [2] was inactive: ≤ -0.027.

`CCCCCC(O)C=CC1C(O)CC(=O)C1CC=CCCCC(=O)O` (configuration not stated) [8-iso Prostaglandin E2]: the “scaled lipid accumulation score” value under setting [3] was inactive: ≤ 0.

For `CC(CCc1ccccc1)NCC(O)c1ccc(O)c(C(N)=O)c1` (configuration not stated) [Labetalol HCl], the “scaled lipid accumulation score” value by setting is: under setting [1], inactive: ≤ 0; under setting [2], inactive: 0.464. As for `CC(CCc1ccccc1)NCC(O)c1ccc(O)c(C(N)=O)c1` (configuration not stated), the “scaled lipid accumulation score” value under setting [2] was inactive: 0.089.

Turning to `CC(CCc1ccccc1)NCC(O)c1ccc(O)c(C(N)=O)c1` (configuration not stated) [Labetalol hydrochloride], the “scaled lipid accumulation score” value was inactive: 0.321. Moreover, the “scaled lipid accumulation score” value under setting [2] was inactive: 0.546 and inactive: 0.164. As for `CCCCc1ccc(N=CNO)c(C)c1`, the “scaled lipid accumulation score” value under setting [3] is inactive: 0.03. For `CC(C)c1ccc2oc3nc(N)c(C(=O)O)cc3c(=O)c2c1`, the “scaled lipid accumulation score” value under setting [2] is inactive: ≤ 0. Consider `NC(=O)c1cc[n+](CC2=C(C(=O)O)N3C(=O)[C@@H](NC(=O)[C@@H](c4ccccc4)S(=O)(=O)[O-])[C@H]3SC2)cc1` [Cefsulodin sodium], for which, under “library stock concentration: 3.6 mM”, the “scaled lipid accumulation score” value was inactive: ≤ 0. For the compound `CC1(C)S[C@@H]2[C@H](NC(=O)[C@H](NC(=O)N3CCNC3=O)c3ccccc3)C(=O)N2[C@H]1C(=O)O` [Azlocillin sodium salt], the “scaled lipid accumulation score” value was inactive: ≤ 0. The “scaled lipid accumulation score” value under setting [1] is inactive: ≤ 0. Under setting [2], the “scaled lipid accumulation score” value was inactive: ≤ -0.001. On to `CC1(C)S[C@@H]2[C@H](NC(=O)[C@H](NC(=O)N3CCNC3=O)c3ccccc3)C(=O)N2[C@H]1C(=O)O` [Azlocillin sodium], for which the “scaled lipid accumulation score” value under setting [2] is inactive: ≤ -0.027. On to `CCCCCCc1ccc(O)cc1O.Nc1c2ccccc2nc2ccccc12` [Acrisorcin], for which the “scaled lipid accumulation score” value (library stock concentration: 5.1 mM) was inactive: 0.478 and the “scaled lipid accumulation score” value under setting [2] was inactive: 0.591. As to `c1ccc(C(OC2CCN(CCCc3nn[nH]n3)CC2)c2ccccc2)cc1`, the “scaled lipid accumulation score” value under setting [3] was inactive: ≤ 0.

Turning to `O=C1[C@H](Cc2ccc(O)cc2)N2C(=O)CCN(C(=O)NCc3ccccc3)[C@H]2CN1Cc1cccc2ccccc12`, the “scaled lipid accumulation score” value was inactive: ≤ 0 under setting [1] and inactive: 0.29 under setting [2]. For `CCCCCC(=O)CC[C@@H]1[C@@H](CCCCCCC(=O)O)[C@@H](O)C[C@H]1O` [13,14-dihydro-15-keto Prostaglandin F1.alpha.], under setting [3], the “scaled lipid accumulation score” value is inactive: ≤ 0. On to `Cc1cc2c(cc1S(N)(=O)=O)S(=O)(=O)CCC2` [Meticrane], for which the “scaled lipid accumulation score” value is inactive: 0.086.

For `CC(=O)c1ncc([C@@H](O)[C@H](O)[C@H](O)CO)[nH]1` [2-Acetyl-5-tetrahydroxybutyl Imidazole], the “scaled lipid accumulation score” value under setting [3] was inactive: ≤ 0. As to `CC(O)C(=O)O.CC(O)C(=O)O.CN1CCN(c2ccc3nc(-c4c(N)c5c(F)cccc5[nH]c4=O)[nH]c3c2)CC1` [Dovitinib (TKI-258) Dilactic Acid], the “scaled lipid accumulation score” value under setting [1] is active: 1.27.

These data come from the supplement of paper PMC9135407.
